Data from article PMC6919601, “Identification of Plasmodium dipeptidyl aminopeptidase allosteric inhibitors by high throughput screening” (PLoS ONE, 2019).
The whole screen tested about 110,000 compounds, of which about 230 (0.21%) showed an effect of 50% or more. The list shows a part of the results.

target: DPAP1 (Plasmodium falciparum, UniProt Q8IIJ9); assay: primary screen, percent inhibition; read by cleavage of a fluorogenic dipeptide substrate; higher = more effect of the substance; design: species or system P. falciparum D10 trophozoite lysates; single well
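Note: 30 min substrate incubation versus DMSO and 10 µM JCP410 controls.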

DPAP1, sequence (Q8IIJ9 whole entry, looked up): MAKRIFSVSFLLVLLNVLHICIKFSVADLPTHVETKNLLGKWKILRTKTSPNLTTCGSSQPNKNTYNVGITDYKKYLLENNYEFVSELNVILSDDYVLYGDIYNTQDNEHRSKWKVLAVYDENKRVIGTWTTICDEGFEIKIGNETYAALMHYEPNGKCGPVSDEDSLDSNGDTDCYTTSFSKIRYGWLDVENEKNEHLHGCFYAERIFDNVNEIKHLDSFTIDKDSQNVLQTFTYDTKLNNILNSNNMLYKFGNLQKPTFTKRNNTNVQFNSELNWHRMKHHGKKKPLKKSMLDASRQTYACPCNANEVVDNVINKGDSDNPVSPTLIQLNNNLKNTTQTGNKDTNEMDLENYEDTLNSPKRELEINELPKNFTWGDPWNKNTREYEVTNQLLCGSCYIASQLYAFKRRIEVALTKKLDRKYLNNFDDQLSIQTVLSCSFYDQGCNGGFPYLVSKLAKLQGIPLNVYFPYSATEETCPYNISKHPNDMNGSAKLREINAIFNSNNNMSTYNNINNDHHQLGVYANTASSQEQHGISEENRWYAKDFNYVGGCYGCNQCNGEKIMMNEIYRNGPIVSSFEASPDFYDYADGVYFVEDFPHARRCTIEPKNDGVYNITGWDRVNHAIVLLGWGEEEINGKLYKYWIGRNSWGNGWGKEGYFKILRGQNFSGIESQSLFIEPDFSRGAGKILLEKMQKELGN

SMILES | % Inhibition @ 10 uM
CCOC(=O)c1cc(-c2ccccc2)n(CC(=O)NC2CCCc3ccccc32)c1C (stereo not shown) | 1.2%
COC(=O)c1[nH]c2ccccc2c1NC(=O)CN(C)C | -1.6%
CCCC(=O)Nc1ccc(-c2cn3ccsc3n2)cc1 | -4.26%
CC(C)C(=O)Nc1ccc(N2CCOCC2)c2nonc12 | -1.51%
O=C(NCC1CCCO1)c1cc(-c2ccccc2)nc2ccccc12 (stereo not shown) | 2.48%
O=C1CC(NCCc2ccccc2)C(=O)N1c1ccccc1 (stereo not shown) | -17.2%
O=S(=O)(Nc1ccc(F)cc1)c1ccc(-c2ccccc2)cc1 | -5.68%
CCCCOc1ccc(/C=C(\C#N)c2nc(-c3ccc(C)cc3)cs2)cc1 | -4.21%
CCn1c2ccccc2c2cc(CN3CCN(C(=O)c4ccncc4)CC3)ccc21 | -3.78%
CC(C)CC(=O)Nc1ccc(NC(=O)c2cccs2)cc1 | -0.545%
CCOC(=O)c1c(NC(=O)/C(O)=C/C(=O)c2ccc(OC)cc2)sc2c1CCCC2 | 1.86%
C#CCNc1c2c(nc3nncn13)CCC2 | 2.34%
O=C1c2ccccc2C(=O)N1c1ccc(Cl)c(Cl)c1 | -4.86%
CC1CCCN(CCCNC(=O)Nc2cn(C)c(=O)c3ccccc23)C1 (stereo not shown) | -3.22%
CC(C)OC(=O)c1c(N)sc2c1CCCC2 | 29.9%
CCOC(=O)C1=C(CS(=O)(=O)c2ccc(Cl)cc2)NC(=O)NC1c1ccc(C(C)C)cc1 (stereo not shown) | -2.38%
CC1(C)CC(=O)C2=C(C1)OC(N)=C(C#N)C2c1ccc(COc2ccc(Br)cc2)o1 (stereo not shown) | -6.51%
Cc1ccc(S(=O)(=O)c2cnc3cc4c(cc3c2N2CCC3(CC2)OCCO3)OCCO4)cc1 | -3.5%
O=C(CCSCCC(=O)NC1CCCCCC1)NC1CCCCCC1 | 2.48%
OCCN1CCN(CC#CCn2c3ccccc3c3ccccc32)CC1 | 2.26%
Cc1oc2ncn3nc(-c4cccnc4)nc3c2c1C | -5.87%
Cc1cc(-c2ccc(C)c(S(=O)(=O)N(CCCN3CCOCC3)Cc3ccco3)c2)on1 | 7.83%
CCN1CCN(C(=O)C2=CCN(S(=O)(=O)c3ccc(Br)cc3)CC2)CC1 | 3.54%
Cc1ccc(OC(C)C(=O)N(Cc2ccccc2)C2CCS(=O)(=O)C2)cc1C (stereo not shown) | 0.561%
CCCCNS(=O)(=O)c1ccc2nc(-c3cccnc3)cc(C(=O)NCC3CCCN3CC)c2c1 (stereo not shown) | -3.21%

SMILES | % Inhibition @ 10 uM
CCOC(=O)N1CCN(C(=O)C2CCCN(S(=O)(=O)c3cccnc3)C2)CC1 (stereo not shown) | -1.03%
Cc1cc(-c2ccc(C)o2)c(C#N)c(SCC(=O)c2ccc(Cl)c(Cl)c2)n1 | -2.47%
CC(=O)c1ccc(OCC(O)CN2CCCC(C)C2)cc1 (stereo not shown) | 0.343%
CC(C)CNC(=O)c1cc2c(=O)n3ccccc3nc2n1C | 3.72%
CC(=O)c1ccc(NC(=O)CCCCCN2C(=O)c3ccccc3C2=O)cc1 | 0.317%
CN1CCN(C(=O)c2nn3c(C(F)(F)F)cc(-c4ccccc4)nc3c2Br)CC1 | 2.03%
Nc1nc(OC(C(F)(F)F)C(F)(F)F)nc(OC(C(F)(F)F)C(F)(F)F)n1 | -2.51%
Cc1c(C(c2ccccc2O)c2c(C)n(C)n(-c3ccccc3)c2=O)c(=O)n(-c2ccccc2)n1C | 0.467%
CCOC(=O)c1ccc(C)c(CNC(=O)CSc2nnc(-c3ccc(C(C)(C)C)cc3)o2)c1 | 1.76%
CC(C)(C)c1ccc(C(=O)N[C@@H](Cc2cc(Cl)c(O)c(Cl)c2)C(=O)NCC#N)cc1 | -1.41%
COc1ccc(CCNC(=O)C2CCCN2c2nnc(N3CCCC3=O)s2)c(OC)c1 (stereo not shown) | -4.26%
CN1CCN(C(=O)CN(c2cccc(Br)c2)S(=O)(=O)c2ccccc2)CC1 | 2.5%
CCOC(=O)N1CCC(NC(=O)C2CCN(Cc3nc(-c4ccccc4F)oc3C)CC2)CC1 | 0.689%
COc1ccc(C(=O)/C=C/c2cccc([N+](=O)[O-])c2)cc1 | 0.968%
COc1cc2oc(C(=O)O)c(C)c2cc1Br | 3.98%
O=C(NCCC1=CCCCC1)c1nnc(Cc2ccc(Cl)cc2)o1 | -2.8%
Nc1nnnn1/N=C\c1ccc(-c2ccc3c(c2)C(=O)OC3)o1 | 3.15%
CCOc1cccc(C2Nc3cccc4cccc(c34)N2)c1O | 3.05%
CC(=O)NC1=NC(=O)/C(=C/c2ccc(-c3ccccc3C(=O)O)o2)S1 | -2.16%
Cc1ccc(NC(=O)CN(C)S(=O)(=O)c2ccc3[nH]c4c(c3c2)CCCC4)nc1 | 1.97%
COc1cc(C2=N/C(=C\c3sccc3C)C(=O)O2)cc(OC)c1OC | 1.3%
O=C(NCc1ccccc1Cl)C1CCN(S(=O)(=O)c2ccc3nc(O)ccc3c2)CC1 | 3.31%
CCCCc1c(O)nc2c(c1O)C(=O)CC(c1ccccc1)C2 (stereo not shown) | -5.63%
CCONC(c1ccccc1)(c1ccccc1)c1ccccc1 | -2.98%
